Changes are numbered by the printed parent chain. No constants are given. Whether binding was seen depends on the method and setting. Some binding calls cover weakened binding; strength is not graded here. Tags and fused reporters may be left off the sequences shown.
What was measured:
Experiment in all cases: two-hybrid
[1] = target: T1, LexA-XA21JK (juxtamembrane and kinase domain of rice XA21), wildtype (rice) (UniProt Q1MX30)
T1 sequence: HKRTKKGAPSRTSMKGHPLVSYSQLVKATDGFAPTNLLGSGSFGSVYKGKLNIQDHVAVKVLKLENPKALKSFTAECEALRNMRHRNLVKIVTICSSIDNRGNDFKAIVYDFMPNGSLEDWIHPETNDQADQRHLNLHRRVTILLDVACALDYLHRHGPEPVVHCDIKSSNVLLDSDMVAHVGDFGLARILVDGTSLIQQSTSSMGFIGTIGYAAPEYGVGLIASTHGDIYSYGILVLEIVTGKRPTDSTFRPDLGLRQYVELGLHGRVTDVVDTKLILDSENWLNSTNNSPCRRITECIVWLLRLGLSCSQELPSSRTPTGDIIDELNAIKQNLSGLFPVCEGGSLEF

LexA-XA21JK^Y907D (rice) = target: T2, LexA-XA21JK^Y907D (rice) (UniProt Q1MX30)
T2 sequence: T1 sequence with Y231D

LexA-XA21JK^Y907F (rice) = target: T3, LexA-XA21JK^Y907F (rice) (UniProt Q1MX30)
T3 sequence: T1 sequence with Y231F

LexA-XA21JK^D842N (rice) = target: T4, LexA-XA21JK^D842N (rice) (UniProt Q1MX30)
T4 sequence: T1 sequence with D166N

LexA-XA21JK^Y786D (rice) = target: T5, LexA-XA21JK^Y786D (rice) (UniProt Q1MX30)
T5 sequence: T1 sequence with Y110D

LexA-XA21JK^Y909D (rice) = target: T6, LexA-XA21JK^Y909D (rice) (UniProt Q1MX30)
T6 sequence: T1 sequence with Y233D

LexA-XA21JK^Y698F (rice) = target: T7, LexA-XA21JK^Y698F (rice) (UniProt Q1MX30)
T7 sequence: T1 sequence with Y22F

LexA-XA21JK^Y698D (rice) = target: T8, LexA-XA21JK^Y698D (rice) (UniProt Q1MX30)
T8 sequence: T1 sequence with Y22D

LexA-XA21JK^Y909F (rice) = target: T9, LexA-XA21JK^Y909F (rice) (UniProt Q1MX30)
T9 sequence: T1 sequence with Y233F

LexA-XA21JK^Y786F (rice) = target: T10, LexA-XA21JK^Y786F (rice) (UniProt Q1MX30)
T10 sequence: T1 sequence with Y110F

B1: HA-XB3 (XA21 binding protein 3, an E3-ubiquitin ligase) (protein, UniProt Q65XV2 1-450)
chain: MGHGVSCARTGDEHDFFRAAQLGDLDALAALLAADPSLARRATLYDRLSVLHIAAANGRIEVLSMFLDRGAPPDAVNRHKQTPLMLAAMHGKIDCVLKLLQADANILMFDSVHARTCLHHAAYYGHVDCLQAILAAAQTTPVADSWGFARFVNVRDDHGATPLHLAARQGRPGCVQVLLENGAIVSALTGSYGFPGSTSLHLAARSGNLDCIRKLLAWGADRLQRDSAGRIPYSVALKRNHGACAALLNPTSAEPMVWPSPLKFISELEPEAKALLEAALMEANREREKKILNGTKYSLPSPSPGDDSADDDACSEVSDTELCCICFDQACTIEVQDCGHQMCAPCTLALCCHNKPNPTTLTPPSPACPFCRGSISRLVVAQTRSACDPDKPSSLQLTRKRSRRSHNLSEGSSSFKGLPSAMGSFSKLGRGSSRMADSDSSNLDKPEHDL
binding [1]: binds
binding (LexA-XA21JK^Y907D (rice)): binds
binding (LexA-XA21JK^Y907F (rice)): binds
binding (LexA-XA21JK^D842N (rice)): binds
binding (LexA-XA21JK^Y786D (rice)): binds
binding (LexA-XA21JK^Y909D (rice)): no binding
binding (LexA-XA21JK^Y698F (rice)): binds
binding (LexA-XA21JK^Y698D (rice)): no binding
binding (LexA-XA21JK^Y909F (rice)): binds
binding (LexA-XA21JK^Y786F (rice)): binds
